Experimental data from PubChem BioAssay AID1460 (National Center for Advancing Translational Sciences (NCATS), 2008).
The campaign covered roughly 270,000 compounds. About 5,800 (2.1%) were called active. The inconclusive results got no clear call from the source; some entries with a clear call stand among them for comparison. Calls follow the shape of the dose curve; as a rule, active = well fitted inhibition curve with a large enough effect; inconclusive = small, poorly fitted or top-dose-only effect; inactive = flat fitted curve, though single readings scatter. Where the call is inconclusive, the potency comes from a doubtful curve fit.

Target: Microtubule-associated protein tau (Homo sapiens) (UniProt P10636)
Chain of UniProt P10636 (P10636 whole entry, looked up): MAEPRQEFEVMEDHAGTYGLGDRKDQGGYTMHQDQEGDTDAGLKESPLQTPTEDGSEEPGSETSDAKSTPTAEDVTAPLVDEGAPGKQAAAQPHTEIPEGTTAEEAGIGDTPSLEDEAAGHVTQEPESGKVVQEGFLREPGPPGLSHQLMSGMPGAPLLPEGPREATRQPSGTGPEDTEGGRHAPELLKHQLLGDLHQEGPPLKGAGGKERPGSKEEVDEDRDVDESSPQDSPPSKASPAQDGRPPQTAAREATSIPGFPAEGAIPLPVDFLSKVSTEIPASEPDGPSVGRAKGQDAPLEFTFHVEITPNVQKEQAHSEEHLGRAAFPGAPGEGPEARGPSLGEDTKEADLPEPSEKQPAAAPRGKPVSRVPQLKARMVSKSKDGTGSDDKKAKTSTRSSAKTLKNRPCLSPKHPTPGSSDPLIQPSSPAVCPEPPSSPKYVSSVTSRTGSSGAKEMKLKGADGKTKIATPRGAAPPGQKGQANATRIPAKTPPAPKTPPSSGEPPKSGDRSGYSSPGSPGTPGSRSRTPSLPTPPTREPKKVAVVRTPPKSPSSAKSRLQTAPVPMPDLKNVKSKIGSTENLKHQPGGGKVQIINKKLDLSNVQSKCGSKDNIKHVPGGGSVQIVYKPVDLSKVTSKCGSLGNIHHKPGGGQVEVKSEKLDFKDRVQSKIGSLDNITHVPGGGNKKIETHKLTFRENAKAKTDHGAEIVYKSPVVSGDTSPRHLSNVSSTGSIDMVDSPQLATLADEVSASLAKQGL
Assay: qHTS for Inhibitors of Tau Fibril Formation, Thioflavin T Binding; also: nearly all actives have a fitted effect of over 55% in size
Details: recombinant tau K18 P301L (four-repeat tau fragment), heparin-induced fibrillization, ThT fluorescence; series mostly up to 57.4 µM
Procedure, shortened: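 Heparin-induced fibrillization of the P301L-mutant K18 repeat-domain fragment of human tau was followed by ThT binding in quantitative high-throughput format.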
Potency is read from the fitted curve at half-maximal effect; tags tell the direction and shape of the fitted curve.

Row | Structure (SMILES) | Potency
1 | O=c1c(C(c2ccc(Br)cc2)c2c(O)nc3n(c2=O)CCS3)c(O)nc2n1CCS2 | inconclusive: 12.6 µM [inhibitor, partial curve]
2 | CC(C)C(=O)Nc1ccc(NC(=O)c2ccc([N+](=O)[O-])cc2Cl)cc1 | inconclusive: 1.41 µM [inhibitor, partial curve, poor fit]
3 | COc1ccc(NC(=O)/C(C#N)=C/c2ccc(C)o2)cc1 | inconclusive: 2.82 µM [inhibitor, partial curve]
4 | CCOC(=O)c1[nH]c2ccccc2c1NC(=O)c1ccc(Br)o1 | inconclusive: 17.8 µM [inhibitor, single point]
5 | O=C(Nc1n[nH]c(C(F)(F)F)n1)c1cccs1 | inconclusive: 2.82 µM [inhibitor, full curve, poor fit]
6 | CC(C)(C)OC(=O)N1CCC(c2c(C(=O)Nc3ccc4c(c3)OCO4)cnn2-c2ccc(F)cc2F)CC1 | inconclusive: 11.2 µM [inhibitor, partial curve]
7 | OC1CCN(c2c3c(nc4cc(-c5ccc(F)cc5)nn24)CCC3)CC1 | inconclusive: 28.2 µM [inhibitor, partial curve, poor fit]
8 | CCCCN(C)CCCNC(=O)Cn1nc(CC)n2c(cc3sc(C)cc32)c1=O | inactive
9 | COc1ccc(OC)c(C(=O)Cn2nnc(-c3ccc(N4CCOCC4)cc3)n2)c1 | inconclusive: 1.58 µM [inhibitor, full curve]
10 | O=C(COC(=O)/C=C/c1ccc(Cl)cc1Cl)Nc1ccc2c(c1)OCCO2 | inconclusive: 10 µM [activator, partial curve]
11 | CCCC(=O)Nc1sc2c(c1C(=O)OCC)CC(C)(C)OC2 | inactive
12 | O=C(O)c1cc(-c2cccc([N+](=O)[O-])c2)nc2ccccc12 | inconclusive: 20 µM [inhibitor, single point]
13 | O=C1CN(CC(=O)Nc2cccc(Cl)c2Cl)c2ccccc2N1 | inactive
14 | CC(=O)c1cccc(NC(=S)NNC(=O)c2ccc(C)c([N+](=O)[O-])c2)c1 | inconclusive: 15.8 µM [inhibitor, partial curve]
15 | CC(C)c1ccc(NC(=O)C(c2ccc3c(c2)OCO3)N2CCN(C(=O)c3ccco3)CC2)cc1 (stereo not drawn) | inactive
16 | COc1ccc(NC(=O)CN(c2cccc(C)c2C)S(=O)(=O)c2ccccc2)cc1OC | inconclusive: 39.8 µM [inhibitor, single point]
17 | CCc1ccc2nc(N(Cc3cccnc3)C(=O)c3cccs3)sc2c1 | inactive
18 | Cc1cc(C=C2C(=O)c3ccccc3C2=O)c(C)n1-c1cccc(C(=O)O)c1 | active: 15.8 µM
